Screen size: about 48,000 compounds; about 1,200 (2.5%) were called active. Roughly 2% stayed inconclusive and do not appear here.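 Rule for the calls: active = activation of at least 60% and not above a set upper limit (about 1 call in 100 departs from these limits); inconclusive = activation of 40% to 60%, or above that upper limit; inactive = activation under 40%.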 The list shows a part of the results.
Molecular target: Probable G-protein coupled receptor 32 (Homo sapiens) (UniProt O75388)
Assay: qHTS for Agonists of Human Resolvin D1 Receptor DRV1; note: 0% is about no effect
Conditions: CHO-K1 GPR32 beta-arrestin PathHunter luminescence, 90 min; at 76.9 µM; hits give high values; zero percent set by DMSO-only wells
Outline: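 Beta-arrestin recruitment read-out: luminescence from complemented beta-Gal in CHO-K1 GPR32 PathHunter cells, measured 1 h after detection reagent at ambient temperature following 90 min compound exposure at 37 °C; DMSO served as basal (EC0) control.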

Sequence of UniProt O75388 (O75388 whole entry, looked up): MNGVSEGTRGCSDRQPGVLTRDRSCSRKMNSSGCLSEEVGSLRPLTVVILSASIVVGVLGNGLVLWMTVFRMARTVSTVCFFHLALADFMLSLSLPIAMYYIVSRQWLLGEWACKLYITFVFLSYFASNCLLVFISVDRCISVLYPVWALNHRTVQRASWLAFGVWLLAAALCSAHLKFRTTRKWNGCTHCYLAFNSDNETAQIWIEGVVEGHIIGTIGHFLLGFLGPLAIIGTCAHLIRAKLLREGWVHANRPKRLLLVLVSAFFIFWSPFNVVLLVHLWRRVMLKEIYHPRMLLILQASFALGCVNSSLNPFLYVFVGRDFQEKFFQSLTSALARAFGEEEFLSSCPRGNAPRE

activation, inactive:
CCC(Sc1ncnc2sc3c(c12)CCCC3)C(=O)OCC(C)C (stereo unspecified) -4.1%
CCCS(=O)(=O)N1CC(=O)N(c2cc(C)cc(C)c2)C(C)(C(=O)NC2CCCCCC2)C1 (stereo unspecified) -8.88%
N#Cc1ccc(NC(=O)c2ccc3c(c2)nnn3C2CCCC2)cc1 13.2%
Oc1cccc(Nc2cc(-c3ccccc3)ncn2)c1 -1.1%
CC(C)(C)C(=O)Nc1ccc2nc(SCCOc3ccccc3Cl)sc2c1 25.5%
CCOc1ccc(-c2cc(CCCC(=O)NCCc3ccc(OC)c(OC)c3)no2)cc1 19.6%
CN(C)c1ccc(C(CNS(=O)(=O)c2ccc(F)cc2)N2CCCC2)cc1 (stereo unspecified) -8.89%
O=C(CCS(=O)(=O)c1nc(-c2ccc3c(c2)OCO3)cc(C(F)(F)F)n1)Nc1ccc(F)c(Cl)c1 -27.7%
COc1ccc(Nc2ncc(C(=O)Nc3cc(Cl)c(OC)cc3OC)c3ccccc23)cc1 -26.4%
COc1ccc(N2CCN(C(=O)c3ccc(Nc4nc5ccccc5n5nnnc45)cc3)CC2)cc1 -21.3%
O=c1c2cc3c(cc2n(Cc2cccc(Cl)c2)c(=O)n1Cc1nc(-c2ccccc2)no1)OCO3 -2.26%
CC(=O)N1CCCc2cc(S(=O)(=O)N3CCCC(C(=O)Nc4cccc(F)c4)C3)ccc21 (stereo unspecified) 3.03%
COc1ccc(NC(=O)CCNS(=O)(=O)c2cccc3nonc23)c(OC)c1 -3.56%
NC(=NCc1ccccc1)NC(=O)c1nc(Cl)c(N)nc1N 6.18%
O=C(Nc1ncc(Cc2ccc(Cl)cc2)s1)c1ccc2c(c1)CC(c1ccccc1)OC2=O (stereo unspecified) 10.1%
CCCn1c2ccccc2c2cnn(CC(=O)NCCc3ccc(OCC)c(OCC)c3)c(=O)c21 -7.9%
Cc1ccc(NC(=O)CCNS(=O)(=O)c2ccc3c(c2)CCN3C(=O)C2CC2)c(Cl)c1 33.3%
CCOC(=O)CNC(=O)c1cc2c(=O)n3cccc(C)c3nc2s1 3.05%
COc1cccc(CNC(=O)CSc2nc3ccccc3nc2Cc2ccc(C)cc2)c1OC -9.02%
COc1cccc(C2CC(=O)Nc3c2c(=O)nc2c(C)cccn32)c1 (stereo unspecified) 2.21%
CCOc1ccccc1NC(=O)CSc1ncc(S(=O)(=O)c2ccc(C(C)(C)C)cc2)c(=O)[nH]1 5.98%
CCCCNC(=O)CCn1c(=O)c2cccn2c2ccc(F)cc21 -17.5%
O=C(CSc1nc2ccccc2nc1Cc1ccc(Cl)cc1)N1CCN(c2ccccc2F)CC1 -6.2%
Cc1ccccc1OCC(=O)Nc1ccc2nc(SCCOc3ccccc3)sc2c1 -0.176%
CCOc1ccc(-c2cc(C(=O)N3CCN(c4cccc(C)c4)C(C)C3)c3ccccc3n2)cc1 (stereo unspecified) -16.4%
Cc1ccc(-c2nnc(Nc3ccc(S(N)(=O)=O)cc3)c3ccccc23)cc1S(=O)(=O)N1CCOCC1 21.4%
CCc1ccccc1NC(=O)C(=O)NCC(c1cccnc1)N1CCc2ccccc21 (stereo unspecified) -26.5%
CN(C(=O)CSc1nc2ccc(NC(=O)CCc3ccccc3)cc2s1)c1ccccc1 -32.8%
Cc1ccc(C)c(Cn2c(SCC(=O)N(C)Cc3ccccc3)nc3ccccc32)c1 -42.6%
Cc1ccc(C)c(N2CCN(C(=O)CCCCCn3c(=O)[nH]c4ccccc4c3=O)CC2)c1 -17%
COc1ccc2c(c1)Cc1sc(NC(=O)c3cccc(F)c3)nc1-2 -40.2%
CC(NC(=O)c1cccc(NC(=O)c2nsc3ccccc23)c1)c1ccccc1 (stereo unspecified) -18%
CCCC(=O)Nc1cc(-c2nc3cccnc3s2)ccc1C -16.8%
Cc1ccc(NC(=O)NCC2CCN(Cc3cccc(Cl)c3)CC2)cc1Cl -12.8%
CCc1cccc(NC(c2nnc(-c3ccccc3)o2)c2ccc(F)cc2Cl)c1 (stereo unspecified) -46.7%
COc1ccc(C(=O)Nc2ccc3oc(-c4ccc(OC)cc4)nc3c2)cc1 8.19%
CCOC(=O)c1ccc(NC(=O)C2CC(=O)N(c3ccc(C(C)C)cc3)C2)cc1 (stereo unspecified) 24%
CCOc1ccc(C(=O)c2cn(Cc3ccc(OC)cc3)c3cc(OC)c(OC)cc3c2=O)cc1 20.6%
Cc1ccc(C(=O)CSc2nnc(-c3ccccc3)n2-c2ccccc2)cc1 -0.2%
COc1cccc(-n2c(-c3ccco3)nc3c(cnn3-c3ccc(C)cc3)c2=O)c1 -27.3%
CCN1c2ccccc2-c2nc(SCC(=O)Nc3c(C)cc(C)cc3C)ncc2S1(=O)=O -17.5%

— PubChem BioAssay AID1346428 (National Center for Advancing Translational Sciences (NCATS), 2018)
